# The list shows a part of the results.
# B1: EULS2 M4 (Oryza sativa) (protein)
# chain: MVYCRANPNYAMTARNGAVVLAPANPKDEYQHWIKDMRWSTSIKDEEGYPAFALVNKATGQAIKHSLGQSHPVRLVPYNPEVMDESVLWTESRDVGNGFRCIRMVNNIYLNFDAFHGDKYHGGVRDGTDIVLWKWCEGDSLRWKIQPYYILEQKLISEEDLNSAVDHHHHHH
# How the values were obtained:
# Assay in all cases: glycan array binding signal (z-score within array); higher = stronger binding
# Details in all cases: glycan notation: IUPAC condensed, linker removed
# [1] = target: Fuc(a1-2)[GalNAc(a1-3)]Gal(b1-3)GlcNAc(b1-6)GalNAc
# In short: (§1)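 Glycan array data were curated from 3228 arrays in the Consortium for Functional Glycomics database and kept only where the protein sequence was available. Glycan names were converted to IUPAC-condensed notation, and columns mapping to the same glycan were averaged. The binding signal is a within-array Z-score, averaged across arrays of the same protein sequence at different concentrations or buffers and across linkers. Negative Z-scores can be read as non-binding.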
# [2] = target: Fuc(a1-2)[GalNAc(a1-3)]Gal(b1-4)Glc
# In short: as §1
# [3] = target: Fuc(a1-2)[GalNAc(a1-3)]Gal(b1-4)GlcNAc
# In short: as §1
# [4] = target: Fuc(a1-2)[GalNAc(a1-3)]Gal(b1-4)GlcNAc(b1-2)Man
# In short: as §1
# [5] = target: Fuc(a1-2)[GalNAc(a1-3)]Gal(b1-4)GlcNAc(b1-2)Man(a1-3)[Fuc(a1-2)[GalNAc(a1-3)]Gal(b1-4)GlcNAc(b1-2)Man(a1-6)]Man(b1-4)GlcNAc(b1-4)GlcNAc
# In short: as §1
# [6] = target: Fuc(a1-2)[GalNAc(a1-3)]Gal(b1-4)GlcNAc(b1-2)Man(a1-3)[Fuc(a1-2)[GalNAc(a1-3)]Gal(b1-4)GlcNAc(b1-2)Man(a1-6)]Man(b1-4)GlcNAc(b1-4)[Fuc(a1-6)]GlcNAc
# In short: as §1
# [7] = target: Fuc(a1-2)[GalNAc(a1-3)]Gal(b1-4)GlcNAc(b1-3)Gal(b1-4)GlcNAc
# In short: as §1
# [8] = target: Fuc(a1-2)[GalNAc(a1-3)]Gal(b1-4)GlcNAc(b1-3)Gal(b1-4)GlcNAc(b1-3)Gal(b1-4)GlcNAc
# In short: as §1
# [9] = target: Fuc(a1-2)[GalNAc(a1-3)]Gal(b1-4)GlcNAc(b1-3)GalNAc
# In short: as §1
# [10] = target: Fuc(a1-2)[GalNAc(a1-3)]Gal(b1-4)GlcNAc(b1-3)[Fuc(a1-2)[GalNAc(a1-3)]Gal(b1-4)GlcNAc(b1-6)]GalNAc
# In short: as §1
# [11] = target: Fuc(a1-2)[GalNAc(a1-3)]Gal(b1-4)GlcNAc(b1-6)GalNAc
# In short: as §1
# [12] = target: Fuc(a1-2)[GalNAc(a1-3)]Gal(b1-4)[Fuc(a1-3)]GlcNAc
# In short: as §1
# [13] = target: Fuc(a1-2)[GalNAc(a1-3)]Gal(b1-4)[Fuc(a1-3)]GlcNAc(b1-3)GalNAc
# In short: as §1
# [14] = target: Fuc(a1-2)[GalNAc(a1-4)]Gal(b1-4)GlcNAc
# In short: as §1
# [15] = target: Fuc(a1-2)[GalNAc(b1-3)]Gal
# In short: as §1
# Fuc(a1-3)GlcNAc = target: Fuc(a1-3)GlcNAc
# In short: as §1
# [16] = target: Fuc(a1-3)[Gal(b1-4)]Glc6S
# In short: as §1
# [17] = target: Fuc(a1-3)[Gal(b1-4)]GlcNAc
# In short: as §1
# [18] = target: Fuc(a1-3)[Gal(b1-4)]GlcNAc(b1-2)Man
# In short: as §1
# [19] = target: Fuc(a1-3)[Gal(b1-4)]GlcNAc(b1-2)Man(a1-3)[Fuc(a1-3)[Gal(b1-4)]GlcNAc(b1-2)Man(a1-6)]Man(b1-4)GlcNAc(b1-4)GlcNAc
# In short: as §1
# [20] = target: Fuc(a1-3)[Gal(b1-4)]GlcNAc(b1-2)Man(a1-3)[Fuc(a1-3)[Gal(b1-4)]GlcNAc(b1-2)Man(a1-6)]Man(b1-4)GlcNAc(b1-4)[Fuc(a1-6)]GlcNAc
# In short: as §1
# [21] = target: Fuc(a1-3)[Gal(b1-4)]GlcNAc(b1-3)Gal(b1-3)[Fuc(a1-4)]GlcNAc
# In short: as §1
# [22] = target: Fuc(a1-3)[Gal(b1-4)]GlcNAc(b1-3)Gal(b1-4)[Fuc(a1-3)]GlcNAc
# In short: as §1
# [23] = target: Fuc(a1-3)[Gal(b1-4)]GlcNAc(b1-3)Gal(b1-4)[Fuc(a1-3)]GlcNAc(b1-3)Gal(b1-4)[Fuc(a1-3)]GlcNAc
# In short: as §1
# [24] = target: Fuc(a1-3)[Gal(b1-4)]GlcNAc(b1-3)GalNAc
# In short: as §1
# [25] = target: Fuc(a1-3)[Gal(b1-4)]GlcNAc(b1-6)GalNAc
# In short: as §1
# [26] = target: Fuc(a1-3)[Gal(b1-4)]GlcNAc(b1-6)[Gal(b1-3)GlcNAc(b1-3)]Gal(b1-4)Glc
# In short: as §1
# [27] = target: Fuc(a1-3)[Gal(b1-4)]GlcNAc6S
# In short: as §1
# [28] = target: Fuc(a1-3)[Gal3S(b1-4)]Glc
# In short: as §1
# [29] = target: Fuc(a1-3)[Gal3S(b1-4)]GlcNAc
# In short: as §1
# [30] = target: Fuc(a1-3)[Gal3S(b1-4)]GlcNAc6S
# In short: as §1
# [31] = target: Fuc(a1-3)[GalNAc(b1-4)]GlcNAc
# In short: as §1
# [32] = target: Fuc(a1-3)[GalNAc(b1-4)]GlcNAc6S
# In short: as §1
# Fuc(a1-4)GlcNAc = target: Fuc(a1-4)GlcNAc
# In short: as §1
# Fuc(b1-3)GlcNAc = target: Fuc(b1-3)GlcNAc
# In short: as §1
# Gal(a1-2)Gal = target: Gal(a1-2)Gal
# In short: as §1
# Gal(a1-3)Gal = target: Gal(a1-3)Gal
# In short: as §1
# Gal(a1-3)Gal(b1-3)GlcNAc = target: Gal(a1-3)Gal(b1-3)GlcNAc
# In short: as §1
# [33] = target: Gal(a1-3)Gal(b1-3)GlcNAc(b1-2)Man
# In short: as §1
# [34] = target: Gal(a1-3)Gal(b1-3)GlcNAc(b1-2)Man(a1-3)[Gal(a1-3)Gal(b1-3)GlcNAc(b1-2)Man(a1-6)]Man(b1-4)GlcNAc(b1-4)GlcNAc
# In short: as §1
# [35] = target: Gal(a1-3)Gal(b1-3)GlcNAc(b1-3)GalNAc
# In short: as §1
# [36] = target: Gal(a1-3)Gal(b1-3)GlcNAc(b1-6)GalNAc
# In short: as §1
# [37] = target: Gal(a1-3)Gal(b1-3)[Fuc(a1-4)]GlcNAc(b1-2)Man(a1-3)[Gal(a1-3)Gal(b1-3)[Fuc(a1-4)]GlcNAc(b1-2)Man(a1-6)]Man(b1-4)GlcNAc(b1-4)GlcNAc
# In short: as §1
# Gal(a1-3)Gal(b1-4)Glc = target: Gal(a1-3)Gal(b1-4)Glc
# In short: as §1
# Gal(a1-3)Gal(b1-4)GlcNAc = target: Gal(a1-3)Gal(b1-4)GlcNAc
# In short: as §1
binder,measurement,setting,value
B1,glycan array binding signal (z-score),[1],1
same,glycan array binding signal (z-score),[2],-0.23
same,glycan array binding signal (z-score),[3],-0.045
same,glycan array binding signal (z-score),[4],-0.183
same,glycan array binding signal (z-score),[5],-0.504
same,glycan array binding signal (z-score),[6],2.32
same,glycan array binding signal (z-score),[7],-0.459
same,glycan array binding signal (z-score),[8],-0.378
same,glycan array binding signal (z-score),[9],-0.304
same,glycan array binding signal (z-score),[10],-0.38
same,glycan array binding signal (z-score),[11],-0.305
same,glycan array binding signal (z-score),[12],-0.416
same,glycan array binding signal (z-score),[13],-0.529
same,glycan array binding signal (z-score),[14],-0.407
same,glycan array binding signal (z-score),[15],0.02
same,glycan array binding signal (z-score),Fuc(a1-3)GlcNAc,0.165
same,glycan array binding signal (z-score),[16],-0.327
same,glycan array binding signal (z-score),[17],-0.333
same,glycan array binding signal (z-score),[18],0.228
same,glycan array binding signal (z-score),[19],-0.194
same,glycan array binding signal (z-score),[20],-0.788
same,glycan array binding signal (z-score),[21],-0.522
same,glycan array binding signal (z-score),[22],-0.226
same,glycan array binding signal (z-score),[23],-0.459
same,glycan array binding signal (z-score),[24],-0.275
same,glycan array binding signal (z-score),[25],-0.02
same,glycan array binding signal (z-score),[26],-0.55
same,glycan array binding signal (z-score),[27],-0.424
same,glycan array binding signal (z-score),[28],0.66
same,glycan array binding signal (z-score),[29],-0.358
same,glycan array binding signal (z-score),[30],-0.356
same,glycan array binding signal (z-score),[31],-0.362
same,glycan array binding signal (z-score),[32],-0.374
same,glycan array binding signal (z-score),Fuc(a1-4)GlcNAc,2.03
same,glycan array binding signal (z-score),Fuc(b1-3)GlcNAc,-0.573
same,glycan array binding signal (z-score),Gal(a1-2)Gal,0.013
same,glycan array binding signal (z-score),Gal(a1-3)Gal,-0.125
same,glycan array binding signal (z-score),Gal(a1-3)Gal(b1-3)GlcNAc,0.88
same,glycan array binding signal (z-score),[33],-0.616
same,glycan array binding signal (z-score),[34],0.027
same,glycan array binding signal (z-score),[35],-0.22
same,glycan array binding signal (z-score),[36],-0.104
same,glycan array binding signal (z-score),[37],-0.462
same,glycan array binding signal (z-score),Gal(a1-3)Gal(b1-4)Glc,-0.492
same,glycan array binding signal (z-score),Gal(a1-3)Gal(b1-4)GlcNAc,-0.248

# From the supplement of paper PMC8728848
